The record followed here is PMC4234672.

The chains behind the UniProt entries cited, without tags or fusion partners.
UniProt Q91YI4: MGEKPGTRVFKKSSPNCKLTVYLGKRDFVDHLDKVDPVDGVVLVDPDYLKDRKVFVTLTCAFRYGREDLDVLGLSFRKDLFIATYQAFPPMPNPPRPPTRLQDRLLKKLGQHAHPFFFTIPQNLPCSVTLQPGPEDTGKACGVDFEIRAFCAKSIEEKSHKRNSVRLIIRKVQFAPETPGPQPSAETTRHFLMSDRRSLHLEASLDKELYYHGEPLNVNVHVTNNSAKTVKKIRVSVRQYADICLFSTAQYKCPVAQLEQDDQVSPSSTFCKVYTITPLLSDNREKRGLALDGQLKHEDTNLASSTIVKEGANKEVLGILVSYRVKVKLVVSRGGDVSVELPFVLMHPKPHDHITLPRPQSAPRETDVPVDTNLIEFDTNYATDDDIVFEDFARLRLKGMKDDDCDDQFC
UniProt P29066: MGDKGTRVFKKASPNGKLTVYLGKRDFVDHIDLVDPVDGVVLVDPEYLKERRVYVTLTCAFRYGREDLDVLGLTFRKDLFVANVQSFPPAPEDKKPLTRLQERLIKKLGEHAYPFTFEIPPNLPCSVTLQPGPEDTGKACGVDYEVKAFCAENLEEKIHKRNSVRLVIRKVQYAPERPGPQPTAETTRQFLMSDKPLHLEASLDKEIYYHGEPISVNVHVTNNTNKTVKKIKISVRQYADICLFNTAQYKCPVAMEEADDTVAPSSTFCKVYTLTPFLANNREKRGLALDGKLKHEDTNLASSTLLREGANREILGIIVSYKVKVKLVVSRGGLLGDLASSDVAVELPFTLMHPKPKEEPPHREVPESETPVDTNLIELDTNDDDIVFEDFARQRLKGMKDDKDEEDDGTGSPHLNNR

No constants are given. Whether binding was seen depends on the method and setting. Binding seen in cells or lysates may run through a third protein. Some entries that bind do so weakly or less than the wild type.

Experiment [1] addresses T1, melanopsin (endogenous, mouse retina) (mouse (endogenous in C57BL/6 retina)) (UniProt Q9QXZ9).
T1 sequence: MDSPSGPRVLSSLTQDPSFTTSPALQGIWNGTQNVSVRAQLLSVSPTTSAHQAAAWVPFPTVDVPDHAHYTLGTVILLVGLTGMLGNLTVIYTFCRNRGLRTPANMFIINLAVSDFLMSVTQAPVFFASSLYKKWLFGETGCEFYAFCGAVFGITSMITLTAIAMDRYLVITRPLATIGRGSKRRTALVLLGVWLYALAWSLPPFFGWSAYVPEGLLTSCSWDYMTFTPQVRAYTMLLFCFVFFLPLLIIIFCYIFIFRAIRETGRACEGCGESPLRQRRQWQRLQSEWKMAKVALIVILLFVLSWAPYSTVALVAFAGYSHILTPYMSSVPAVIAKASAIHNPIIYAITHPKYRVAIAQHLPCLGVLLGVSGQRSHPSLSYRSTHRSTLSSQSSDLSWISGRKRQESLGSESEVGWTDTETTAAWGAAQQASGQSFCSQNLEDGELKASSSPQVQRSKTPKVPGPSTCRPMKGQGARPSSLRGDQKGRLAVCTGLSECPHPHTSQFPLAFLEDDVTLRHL
Put plainly: proximity ligation; dark-adapted fixed retinal sections of C57BL/6 mice; Duolink with anti-melanopsin (C-terminal) and anti-β-arrestin 1 or 2.

Experiment [2] deals with T1, melanopsin (endogenous, mouse retina) (mouse (endogenous in C57BL/6 retina)). The experiment can be described thus: proximity ligation; light-exposed fixed retinal sections of C57BL/6 mice; Duolink with anti-melanopsin (C-terminal) and anti-β-arrestin 1 or 2.
Experiment [3] addresses T2, mouse melanopsin (mouse) (UniProt Q9QXZ9).
T2 sequence: T1 sequence
The experiment can be described thus: proximity ligation; β-arrestin stable HEK293 lines transfected with melanopsin or phosphonull melanopsin; 9-cis retinal; 10 min bright broad spectrum light (5000 lux), then fixed with 4% PFA; Duolink with anti-melanopsin (C-terminal) and anti-β-arrestin 1 or 2.

The target in experiment [4] is T3, mouse melanopsin-1D4 (mouse) (UniProt Q9QXZ9).
T3 sequence: T1 sequence
Put plainly: cross-linking + co-IP; β-arrestin stable HEK293 lines transfected with melanopsin-1D4 or phosphonull-1D4; 20 µM 9-cis retinal 1 h in the dark; light-exposed (bright white light, 30 min, 20°C) or dark-adapted; DSP cross-linking in the cells; solubilised in PBS with 1% dodecyl maltoside; 1D4 sepharose beads overnight 4°C; eluted with 50 mM DTT; blots for β-arrestin 1 and β-arrestin 2.

In experiment [5] the target is T2, mouse melanopsin (mouse). Put plainly: condition: only in the dark (cells fixed without light exposure); proximity ligation; β-arrestin stable HEK293 lines transfected with melanopsin; 9-cis retinal; fixed immediately in the dark with 4% PFA; Duolink with anti-melanopsin (C-terminal) and anti-β-arrestin 1 or 2.

Consider “β-arrestin 2 (endogenous, mouse retina) (from UniProt Q91YI4 1-410)”, for which the binding result is reported as “no binding (condition: dark-adapted retinas)” in experiment [1] and “binds” in experiment [2].

In the case of “rat β-arrestin 1 (from UniProt P29066 1-418)”, the binding entry in experiment [3] is on record as “binds”; in experiment [4], “binds”; in experiment [5], “no binding”.

In the case of “mouse β-arrestin 2 (from UniProt Q91YI4 1-410)”, the binding result is given as “binds” in experiment [3], “binds” in experiment [4] and “no binding” in experiment [5].
